Results: PubChem BioAssay AID504332 (National Center for Advancing Translational Sciences (NCATS), 2011)
Hit rate of the full screen: of about 350,000 compounds, about 31,000 (8.9%) were called active. Inconclusive results, whose numbers are uncertain, are shown with a selection of clear calls. The call rests on the fitted dose curve; in most records, active means well fitted inhibition curve with a large enough effect; inconclusive means small, poorly fitted or top-dose-only effect; inactive means no such curve, though single readings can be large or run the other way. Potencies of inconclusive entries are doubtful fits and often do not repeat.

target: Histone-lysine N-methyltransferase EHMT2 (Homo sapiens) (UniProt Q96KQ7); experiment: qHTS Assay for Inhibitors of Histone Lysine Methyltransferase G9a; conditions: G9a H3K9 monomethylation, AlphaScreen, 2 h; activity, negative = inhibition: at 59 µM (top of the series) unless noted; further: nearly all actives have a fitted effect of over 75% in size
Chain of UniProt Q96KQ7 (Q96KQ7 whole entry, looked up): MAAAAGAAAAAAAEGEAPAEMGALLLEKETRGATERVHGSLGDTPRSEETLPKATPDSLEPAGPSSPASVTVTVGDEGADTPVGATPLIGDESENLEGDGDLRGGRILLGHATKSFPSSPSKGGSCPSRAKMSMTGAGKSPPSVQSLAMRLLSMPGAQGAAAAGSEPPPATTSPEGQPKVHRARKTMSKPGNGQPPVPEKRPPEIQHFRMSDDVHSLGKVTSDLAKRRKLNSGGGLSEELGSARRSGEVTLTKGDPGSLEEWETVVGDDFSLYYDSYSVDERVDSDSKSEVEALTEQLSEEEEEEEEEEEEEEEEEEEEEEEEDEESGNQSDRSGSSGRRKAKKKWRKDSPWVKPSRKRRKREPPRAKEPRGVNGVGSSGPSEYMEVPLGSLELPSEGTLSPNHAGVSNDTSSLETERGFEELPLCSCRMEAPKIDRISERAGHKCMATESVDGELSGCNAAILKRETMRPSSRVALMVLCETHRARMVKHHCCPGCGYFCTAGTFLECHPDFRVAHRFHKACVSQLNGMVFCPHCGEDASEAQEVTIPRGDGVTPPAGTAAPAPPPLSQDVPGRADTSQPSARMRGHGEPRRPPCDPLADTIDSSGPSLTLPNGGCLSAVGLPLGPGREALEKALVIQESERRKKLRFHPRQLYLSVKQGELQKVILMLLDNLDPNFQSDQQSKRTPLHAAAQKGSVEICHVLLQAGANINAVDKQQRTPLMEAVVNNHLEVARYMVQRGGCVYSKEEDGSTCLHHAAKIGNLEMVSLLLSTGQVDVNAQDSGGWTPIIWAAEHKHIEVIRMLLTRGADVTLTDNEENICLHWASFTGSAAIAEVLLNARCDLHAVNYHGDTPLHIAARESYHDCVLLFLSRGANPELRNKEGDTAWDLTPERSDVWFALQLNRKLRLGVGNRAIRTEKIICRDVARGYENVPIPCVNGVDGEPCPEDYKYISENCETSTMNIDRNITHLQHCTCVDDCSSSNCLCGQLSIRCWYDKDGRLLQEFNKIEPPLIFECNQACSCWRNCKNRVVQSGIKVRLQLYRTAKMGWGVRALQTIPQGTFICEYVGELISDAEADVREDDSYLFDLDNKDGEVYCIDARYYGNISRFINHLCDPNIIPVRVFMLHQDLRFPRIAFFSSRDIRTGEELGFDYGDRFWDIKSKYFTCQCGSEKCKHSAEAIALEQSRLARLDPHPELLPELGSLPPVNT
Summary of the method: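 AlphaScreen detection with an anti-monomethyl H3K9 antibody quantified product after a 2 h room-temperature reaction containing 500 nM biotinylated H3K9 peptide, 20 µM SAM and 20 nM enzyme, which had been preincubated 15 min with compound.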
On the % scale 0 is the no-effect control and ±100 the full control effect; potency means the concentration at half of the fitted maximal effect; tags describe the fitted curve by direction and shape.

| Structure (SMILES) | Potency | activity, negative = inhibition |
| --- | --- | --- |
| O=C(CSc1nc(=O)n2ccccc2n1)N1CCCc2ccccc21 | inactive | – |
| CCN(C(=O)C1CCC(CNS(=O)(=O)c2cccc3nsnc23)CC1)c1cccc(C)c1 (stereo not given) | inconclusive: 14.1 µM [inhibitor, partial curve] | – |
| COc1cc2c(cc1OC)C1O[C@](CCCCN3C(=O)c4ccccc4C3=O)(C2)OC2=C1C(=O)CCC2 | – | inactive: -17.8% [at 2.33 µM] |
| O=C(CSc1nnc(COc2ccccc2)o1)N1CCN(c2ccccc2)CC1 | inconclusive: 22.4 µM [inhibitor, partial curve, poor fit] | – |
| Cc1ccc(S(=O)(=O)N(C(=O)c2ccncc2)c2ccc3oc4c(c3c2)CCCC4)cc1[N+](=O)[O-] | inconclusive: 3.16 µM [inhibitor, full curve] | – |
| Cc1ccc(Oc2nc3c(c(=O)n(Cc4ccccc4)c(=O)n3C)n2C)cc1C | inconclusive: 31.6 µM [inhibitor, single point] | – |
| O=C(NCc1cccnc1)c1ccc(Cl)c(S(=O)(=O)N2CCCCCC2)c1 | inactive | – |
| Cn1nnnc1SCC(=O)Nc1nc(-c2ccc(F)c(F)c2)cs1 | inconclusive: 0.562 µM [inhibitor, partial curve, poor fit] | – |
| Cc1oc2ncnc(N3CCOCC3)c2c1C(=O)N1CCN(c2cccc(C(F)(F)F)c2)CC1 | inactive | – |
| c1cc2c(cc1CN1CCOCC1)OCO2 | inactive | – |
| COc1cccc(C(c2nnnn2Cc2ccco2)N2CCN(c3cccc(C)c3C)CC2)c1OC (stereo not given) | inconclusive: 39.8 µM [inhibitor, partial curve] | – |
| COc1cc2c(cc1NCc1ccccn1)oc1ccccc12 | inconclusive: 39.8 µM [inhibitor, single point] | – |
| CCS(=O)(=O)N1Cc2ccccc2CC1C(=O)Nc1ccc(F)c(F)c1 (stereo not given) | inconclusive: 31.6 µM [inhibitor, partial curve, poor fit] | – |
| CCCn1c(N)c(N(CCOC)C(=O)COC(=O)c2ccccc2NCCO)c(=O)[nH]c1=O | active: 8.91 µM | – |
| CC(C)CC(NC(=O)C(CO)NC(=O)C1CCC(=O)N1)C(N)=O (stereo not given) | inactive | – |
| CC(C)(C)c1ccc(/C=N/Nc2nncn2N)cc1 | active: 39.8 µM | – |
| O=C(CSc1ccc(-c2cccnc2)nn1)c1ccc([N+](=O)[O-])cc1 | active: 22.4 µM | – |
| CC(C)(C)c1ccc(C(=O)NNc2ncnc3c2cnn3-c2ccccc2)cc1 | inactive | – |
| CC(OC(=O)c1ccc(-c2ccc(O)cc2)cc1)C(=O)NC1CCCCC1C (stereo not given) | – | inactive: 4.89% [at 0.501 µM] |
| C=C(C)C(=O)Nc1cccc(C2=NOC3(C2)C[C@@H](C(N)=O)N(C(=O)C(=C)C)C3)c1 (stereo not given in full) | inconclusive: 12.6 µM [inhibitor, single point] | – |
| COc1cc(/C=C2\COC/C(=C\c3ccc(O)c(OC)c3)C2=O)ccc1O | active: 31.6 µM | – |
| CCOc1ccc(C2C=C(c3cccc(OC)c3)Nc3nnnn32)cc1 (stereo not given) | inactive | – |
| Cc1cccc(C(C)(C)C)c1OCCOCCN1CCCC1 | inconclusive: 31.6 µM [inhibitor, single point] | – |

| Structure (SMILES) | Potency | activity, negative = inhibition |
| --- | --- | --- |
| CCc1ccc(S(=O)(=O)NCCc2cn3ccsc3n2)s1 | inconclusive: 89.1 µM [inhibitor, single point] | – |
| O=C(O)c1cccc(NC(=O)c2cn(-c3ccccc3)nc2-c2ccc(F)cc2)c1 | inconclusive: 79.4 µM [inhibitor, partial curve, poor fit] | – |
| CCC[N+](C)(C)C(C)C(OC(C)=O)c1ccccc1 (stereo not given) | inconclusive: 39.8 µM [inhibitor, single point] | – |
| CCN(CC)S(=O)(=O)c1cccc(C(=O)NCC(c2ccccc2)N(C)C)c1 (stereo not given) | inconclusive: 100 µM [inhibitor, single point] | – |
| CCOc1cc(/C=N/Nc2nc(N3CCCC3)nc(N3CCCC3)n2)ccc1O | inconclusive: 31.6 µM [inhibitor, single point] | – |
| CNC(=O)c1sc2nc(-c3ccc(OC)cc3)cn2c1C | active: 50.1 µM | – |
| COc1ccc2nc3oc(C(=O)Nc4cccc(C(F)(F)F)c4)cc3cc2c1 | inactive | – |
| CSCCNCc1cn(-c2ccc(F)cc2F)nc1-c1ccccc1C | inconclusive: 44.7 µM [inhibitor, partial curve, poor fit] | – |
| CS(=O)(=O)N(CC(=O)NCc1ccco1)Cc1ccc(Cl)cc1 | inconclusive: 17.8 µM [inhibitor, partial curve, poor fit] | – |
| CCCCn1c(=O)nc2n(-c3ccccc3C)c3ccccc3cc-2c1=O | inconclusive: 89.1 µM [inhibitor, single point] | – |
| C/C(=N\Nc1nc(C(C)(C)C)cs1)c1ccccc1 | active: 70.8 µM | – |
| O=C(CSc1nnc(-c2cccnc2)n1Cc1ccco1)NCc1ccc2c(c1)OCO2 | inconclusive: 89.1 µM [inhibitor, partial curve, poor fit] | – |
| Cc1cccc(Nc2nc(C)nc(N)c2S(=O)(=O)c2ccccc2)c1 | inactive | – |
| O=C(Oc1ccccc1Cl)c1ccc(N2CCOCC2)c([N+](=O)[O-])c1 | inconclusive: 20 µM [inhibitor, single point] | – |
| Cc1ccc(-c2[nH]nc(N)c2N=Nc2ccccc2C)cc1 | inconclusive: 17.8 µM [inhibitor, partial curve] | – |
| Cc1c(Cl)cccc1NC(=O)c1ccc(NC(=O)N2CCSc3ncccc32)cc1 | inconclusive: 5.01 µM [inhibitor, full curve] | – |
| CCc1ccc(CCC(=O)Nc2nccs2)o1 | – | inconclusive: -55.1% [inhibitor] |
| CCOc1ccccc1C(C(=O)NC1CCCC1)N(Cc1ccco1)C(=O)CNC(=O)c1ccco1 (stereo not given) | inconclusive: 22.4 µM [inhibitor, partial curve, poor fit] | – |
| COC(=O)N/N=C/c1cn(Cc2c(Cl)cccc2Cl)c2ccccc12 | inconclusive: 31.6 µM [inhibitor, single point] | – |
| O=[N+]([O-])c1ccc(NCc2ccccc2)nc1 | inactive | – |
| COc1cc(OC)cc(C(=O)NCCCNC(=O)c2cccnc2)c1 | inactive | – |
| CC(C)(C)C1CCC(=NNC(=O)C(=O)NC2CCCCC2)CC1 (stereo not given) | inconclusive: 25.1 µM [inhibitor, partial curve, poor fit] | – |
